Measured values taken from PubChem BioAssay AID886 (National Center for Advancing Translational Sciences (NCATS), 2007).
Screen size: about 73,000 compounds; about 2,500 (3.4%) were called active. Inconclusive results, whose numbers are uncertain, are shown with a selection of clear calls. Calls follow the shape of the dose curve; as a rule, active = well fitted inhibition curve with a large enough effect; inconclusive = small, poorly fitted or top-dose-only effect; inactive = no such curve, though single readings can be large or run the other way. Potencies of inconclusive entries are doubtful fits and often do not repeat.

target: 3-hydroxyacyl-CoA dehydrogenase type-2 (Homo sapiens) (UniProt Q99714); assay: qHTS Assay for Inhibitors of HADH2 (Hydroxyacyl-Coenzyme A Dehydrogenase, Type II); settings: recombinant HADH2, NADH fluorescence, beta-hydroxybutyryl-CoA; series mostly up to 57.1 µM; activity change, negative = inhibition: at the top concentration; also: nearly all actives have a fitted effect of over 60% in size
Chain of UniProt Q99714 (Q99714 whole entry, looked up): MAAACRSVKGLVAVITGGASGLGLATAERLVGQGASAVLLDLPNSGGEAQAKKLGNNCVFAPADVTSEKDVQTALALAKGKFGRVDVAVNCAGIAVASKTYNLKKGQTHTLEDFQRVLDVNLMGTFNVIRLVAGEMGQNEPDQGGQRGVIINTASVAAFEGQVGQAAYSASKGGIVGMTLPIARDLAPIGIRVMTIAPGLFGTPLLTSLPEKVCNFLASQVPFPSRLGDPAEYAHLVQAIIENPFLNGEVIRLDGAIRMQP
Chain of UniProt Q99714 (Q99714 whole entry, looked up): as above
Procedure, shortened: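 Read-out: 360 nm excitation, 450 nm emission, kinetic over 4 min. Conditions: His-tagged human HADH2 20 nM, pH 9.0 Tris with Tween-20, 1 mM NAD+, 90 uM beta-hydroxybutyryl-CoA.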
% is scaled to controls: 0 for no effect and ±100 for the full control effect; potency is read from the fitted curve at half-maximal effect; tags tell the direction and shape of the fitted curve.

| SMILES | Potency | activity change, negative = inhibition |
| --- | --- | --- |
| CCCN(CCC)CCc1ccc(O)c(O)c1 | inconclusive: 31.6 µM [inhibitor, single point] |  |
| Cc1cc(N2CCOCC2)nc2ccc(NC(=O)CCC(=O)N3CCC4(CC3)OCCO4)cc12 | active: 25.1 µM |  |
| CCOc1cccc(N2C(=O)CC(=O)NC2=O)c1 | inconclusive: 5.01 µM [inhibitor, full curve, poor fit] |  |
| COc1cc(C(C#N)N2CCOCC2)ccc1O (centres undefined) | inconclusive: 31.6 µM [inhibitor, single point] |  |
| COCCCNC(=O)c1c(NC(=O)c2ccco2)n(Cc2ccccc2)c2nc3ccccc3nc12 | active: 12.6 µM |  |
| Oc1c(Cl)c(Cl)c(Cl)c(Cl)c1Cl | inconclusive: 31.6 µM [inhibitor, partial curve] |  |
| CCOC(=O)c1c(C)n(CCOC)c2ccc(O)cc12 | inconclusive: 39.8 µM [inhibitor, single point] |  |
| Cc1cc(O)c2c(c1)C(=O)c1cc(O)cc(O)c1C2=O | inconclusive: 0.398 µM [inhibitor, full curve] |  |
| CN(C)[C@@H]1C(=O)C(C(N)=O)=C(O)[C@]2(O)C(=O)C3=C(O)c4c(O)cccc4[C@](C)(O)[C@H]3C[C@@H]12 | active: 3.16 µM |  |
| CCOC(=O)Nc1ccc(NCc2ccc(F)cc2)nc1N | active: 25.1 µM |  |
| Cc1nc2cc(-c3cccc(F)c3)nn2c(C)c1CCC(=O)N1CCC2(CC1)OCCO2 |  | inactive: -6.04% |
| O=C(O)CNC(=O)[C@@H](CS)Cc1ccccc1 | inconclusive: 20 µM [inhibitor, single point] |  |
| Nc1c(C(=O)OCC2CCCO2)c2nc3ccccc3nc2n1Cc1cccs1 (centres undefined) | active: 12.6 µM |  |
| CCN(CCCl)Cc1ccccc1Br | inconclusive: 6.31 µM [inhibitor, single point] |  |
| CN1CC[C@@]2(CCCN(C(=O)c3csnn3)C2)C1 | inconclusive: 15.8 µM [inhibitor, partial curve] |  |
| CC1=C(O)C(=O)[C@H]2O[C@@H]2C1=O | inconclusive: 5.01 µM [inhibitor, full curve] |  |
| Cc1cc(OCc2nn[nH]n2)c2c3c(c(=O)oc2c1)CCCC3 | active: 31.6 µM |  |
| O=C(CCCN1CCC2(CC1)C(=O)N(CCc1ccc(N=C=S)cc1)CN2c1ccccc1)c1ccc(F)cc1 |  | inactive: -14.2% |
| COc1cc2c(cc1O)-c1c(O)c(OC)cc3c1[C@H](C2)N(C)CC3 | active: 31.6 µM |  |
| CCCCCn1c(SCCCC)nc2c1c(=O)[nH]c(=O)n2C | inconclusive: 25.1 µM [inhibitor, partial curve, poor fit] |  |
| CP(=O)(O)CCCN | inactive |  |
| O=C1C=Cc2ccccc2C1=O | active: 3.98 µM |  |
| Nc1ccc(-c2ccc(N)c(O)c2)cc1O | active: 2 µM |  |
| c1ccc2c(c1)-c1cccc3cccc-2c13 | inconclusive: 39.8 µM [inhibitor, single point] |  |
| c1ccc(CCCN2CCN(CCOC(c3ccccc3)c3ccccc3)CC2)cc1 | inconclusive: 39.8 µM [inhibitor, single point] |  |

| SMILES | Potency | activity change, negative = inhibition |
| --- | --- | --- |
| CCCCn1c(O)c(C(CC)=Nc2ccc3c(c2)CCC3)c(=O)[nH]c1=O | inconclusive: 7.94 µM [inhibitor, single point] |  |
| ClC(Br)Br | inconclusive: 31.6 µM [inhibitor, single point] |  |
| COC(=O)c1c(C)n(Cc2ccc3c(c2)OCO3)c2ccc(O)cc12 | inconclusive: 39.8 µM [inhibitor, single point] |  |
| C[C@@H](Cc1ccc(O)cc1)NC[C@@H](O)c1cc(O)cc(O)c1 | inconclusive: 12.6 µM [inhibitor, partial curve] |  |
| Cc1ccc2c(c1)CC1(CN2C)C(=O)NC(=O)N(C(C)C)C1=O (centres undefined) |  | inactive: 24.9% |
| CCC(=NCCN1CCOCC1)c1c(O)n(-c2ccccc2C)c(=O)[nH]c1=O | active: 3.16 µM |  |
| CCCCCCOc1ccc(CN2CCN(C)CC2)cc1 |  | inactive: 4.97% |
| Nc1nc(N)c2nc(CNc3ccc(C(=O)N[C@H](CCC(=O)O)C(=O)O)cc3)cnc2n1 | active: 12.6 µM |  |
| CN(C)c1ccc(N=O)cc1 | inconclusive: 31.6 µM [inhibitor, partial curve] |  |
| Cc1cccn2c(=O)c3cc(C(=O)N4CCC5(CC4)OCCO5)n(C)c3nc12 | active: 20 µM |  |
| Cc1ccc(CC2C(=O)N(C)C(=O)N(C)C2=O)s1 | inconclusive: 7.94 µM [inhibitor, single point] |  |
| CCCCCn1c(N)c(C(=O)NCCN2CCOCC2)c2nc3ccccc3nc21 | inconclusive: 39.8 µM [inhibitor, single point] |  |
| CC[N+](=O)[O-] |  | inactive: -3.65% |
| N[C@@H](Cn1cc(I)c(=O)[nH]c1=O)C(=O)O | inconclusive: 39.8 µM [inhibitor, single point] |  |
| CC(=NC1CCN(Cc2ccccc2)CC1)c1c(O)n(C)c(=O)n(C)c1=O | inconclusive: 1.58 µM [inhibitor, single point] |  |
| Nc1cccc2c(N)cccc12 | active: 31.6 µM |  |
| c1ccc(C2CC2)c(OCC2=NCCN2)c1 | inconclusive: 39.8 µM [inhibitor, single point] |  |
| CCn1nc(-c2cccs2)nc2c(=O)n(C)c(=O)nc1-2 | inconclusive: 20 µM [inhibitor, partial curve, poor fit] |  |
| Cc1cc2nc(NC3=NCN(Cc4cccnc4)CN3)nc(C)c2cc1C | inconclusive: 39.8 µM [inhibitor, single point] |  |
| CCOP(=S)(OCC)Oc1cc(C)nc(C(C)C)n1 | inconclusive: 3.16 µM [inhibitor, full curve] |  |
| CC(C)(C)C(=O)C1C(=O)c2ccccc2C1=O | inconclusive: 5.01 µM [inhibitor, full curve] |  |
| N#CC(C#N)=Cc1ccc([N+](=O)[O-])c(O)c1 | inconclusive: 0.158 µM [inhibitor, full curve, poor fit] |  |
| CCOP(=S)(OCC)SCSC(C)(C)C | inconclusive: 25.1 µM [inhibitor, partial curve] |  |
| CN1CCCC2(CCN(C(=O)c3ccncc3)CC2)C1 | inconclusive: 25.1 µM [inhibitor, single point] |  |
